We go through 47 molecules from PubChem BioAssay AID1508642 (National Center for Advancing Translational Sciences (NCATS), 2021).

Each structure is given as a SMILES string. Among all 43,000 compounds or so, about 200 (0.47%) were called active. Another 12% or so got no clear call; they are omitted. Calls follow the shape of the dose curve; as a rule, active = well fitted cell-killing curve with a large enough effect; inconclusive = small, poorly fitted or top-dose-only effect, or effect the other way; inactive = flat fitted curve, though single readings scatter. The list shows a part of the results.
% is scaled to controls: 0 for no effect and ±100 for the full control effect.

This assay is described as follows: Cell viability qHTS assay in S16 Pmp22-F2sN cells. Also: nearly all actives have a fitted effect of over 65% in size. The conditions noted are these: S16 Pmp22-F2sN Schwann cells viability, CellTiter-Glo, 24 h; series mostly up to 57.5 µM; activity change, negative = cytotoxicity: at the top concentration. The method, boiled down:
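S16 Pmp22-F2sN Schwann cells (500-1,000/well) in phenol-red-free DMEM with 10% FBS received 23 nL compound by pin tool for 24 h at 37 °C. Viability was then read as CellTiter-Glo luminescence after 15 min at room temperature.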
In the case of `Cc1ccc(-n2nc(C)c3c(C(=O)NCc4ccc(F)cc4)cc(C)nc32)cc1`, the “activity change, negative = cytotoxicity” value is inactive: 0.682%.

Regarding `Cc1cccc(N2CC(C)Cn3c2nc2c3c(=O)n(CC(=O)O)c(=O)n2C)c1` (configuration not stated), the “activity change, negative = cytotoxicity” value was inactive: 4.71%. The figure for `COc1ccc(CNC(=O)c2cc3cc(S(=O)(=O)N4CCCCC4)ccc3n2C)c(OC)c1` is inactive: -12.7%; for `O=C1N(Cc2cccc(C(F)(F)F)c2)c2ccccc2S(=O)(=O)N1c1cccc(Cl)c1` it is inactive: 15.2%; for `COc1ccc(NC(=O)CCc2c(C)nc3c(c2C)c(=O)n(C)c(=O)n3C)cc1OC` it is inactive: 5.43%. The figure for `O=c1c2sc3ccccc3c2n(Cc2cccc(C(F)(F)F)c2)c(=O)n1Cc1ccccc1` is inactive: 0.168%; for `COc1ccc(NC(=O)CSc2nc(-c3cccs3)cc(C(F)(F)F)c2C#N)cc1` it is inactive: 8.75%; for `CCOC(=O)N1CCc2c(sc(NCc3ccc(N(C)C)cc3)c2C(=O)Nc2ccc(OC)cc2)C1` it is inactive: 4.85%. The figure for `CC1CCc2c(sc(NC(=O)c3ccc(Cl)cc3Cl)c2C#N)C1` (configuration not stated) is inactive: 5.35%.

Take `CCCCN(CCCC)CCNC(=O)c1cn(C)c2ccc(S(=O)(=O)N3CCCC3)cc2c1=O`: the “activity change, negative = cytotoxicity” value was inactive: -5.56%. The figure for `CCOC(=O)c1c(S(=O)(=O)N2CCC(C(=O)Nc3ccc(OCC)cc3)CC2)c(C)n(C)c1C` is inactive: 9.33%; for `Cc1nn(CCC(=O)N2CCN(c3ccccc3)CC2)c(C)c1S(=O)(=O)N1CCCC1` it is inactive: 12.7%; for `CCc1cnc2c(c1SCC(=O)N1CCC(C)CC1)c(=O)n(C)c(=O)n2C` it is inactive: 0.0114%. As for `Cc1c(NC(=O)Nc2ccc(F)c(Cl)c2)c(=O)n(-c2ccccc2)n1C`, the “activity change, negative = cytotoxicity” value was inactive: -15.5%.

On to `COc1ccc(OC)c(NC(=O)N2c3ccccc3Sc3ccccc32)c1`, for which the “activity change, negative = cytotoxicity” value was inactive: -9.31%. The figure for `CCc1ccc(C2c3c(-c4cc(C)ccc4O)n[nH]c3C(=O)N2Cc2cccnc2)cc1` (configuration not stated) is inactive: -12.9%; for `Cc1ccc(OCc2nc(-c3ccc(C(=O)N4CCN(c5ccccc5)CC4)cc3)oc2C)cc1` it is inactive: 6.85%; for `CCOc1ccc(CCNC(=O)Cn2nnc(-c3ccc(C(F)(F)F)cc3)n2)cc1OCC` it is inactive: 12.6%. For `CC(=O)Nc1nnc(SCc2cc(=O)c3cccc(Cl)c3[nH]2)s1`, the “activity change, negative = cytotoxicity” value was inactive: -12.3%. The figure for `Cn1cc(CCCC(=O)NCc2ccccc2Cl)c2ccccc21` is inactive: -2.22%. On to `CCOC(=O)c1c(NC(=O)CSc2nc(-c3ccccc3)cc(C(F)(F)F)n2)sc(C)c1C`, for which the “activity change, negative = cytotoxicity” value was inactive: -5.39%. Consider `CCOc1ccc(CCNC(=O)CN2C(=O)c3cccnc3Oc3ccc(Cl)cc32)cc1`, for which the “activity change, negative = cytotoxicity” value was inactive: -1.08%.

Consider `O=C(c1ccc([N+](=O)[O-])cc1)N1CCN(c2ccc(Nc3ccccc3)nn2)CC1`, for which the “activity change, negative = cytotoxicity” value was inactive: 6.22%.

On to `Cc1ccc(CNc2ccc(-c3nc(-c4ccccn4)no3)cc2[N+](=O)[O-])cc1`, for which the “activity change, negative = cytotoxicity” value is inactive: 10.2%. Turning to `CCOc1ccc(OCC)c(Nc2cc(C)nc3nc(-c4ccco4)nn23)c1`, the “activity change, negative = cytotoxicity” value is inactive: -0.782%. The figure for `CC(=O)N1c2ccc(S(=O)(=O)N3CCCCCC3)cc2CC1C(=O)NCc1ccccc1F` (configuration not stated) is inactive: -43.6%; for `O=C(CSc1nccn1Cc1ccccc1)Nc1ccc2c(c1)OCO2` it is inactive: -11.5%. The figure for `CCOC(=O)N1CCC(NC(=O)c2ccc3c(c2)N(Cc2cc(C)ccc2C)C(=O)c2ccccc2S3=O)CC1` (configuration not stated) is inactive: 2.07%; for `CCC(C)(C)NC(=O)Cn1c(=O)ccc2cc(S(=O)(=O)N3CCC(C)CC3)ccc21` it is inactive: -24.2%. The figure for `COc1ccc(CCNC(=O)CCn2c(=O)c3cccn3c3cccnc32)c(OC)c1OC` is inactive: 1.3%. `Cc1cccc(NC(=O)N2CCC(n3c(C)nc4cccnc43)CC2)c1`: the “activity change, negative = cytotoxicity” value was inactive: 8.84%.

As for `CCOc1cc(C(=O)NCCc2csc(-c3ccc(C)cc3)n2)cc(OCC)c1OCC`, the “activity change, negative = cytotoxicity” value is inactive: -0.35%. The figure for `COc1ccc(OC)c(CNC(=O)C2CCN(c3ncnc4c3nc3n4CCCCC3)CC2)c1` is inactive: -8.17%; for `O=C(Nc1ccc(F)cc1Cl)C1Cc2ccccc2N1C(=O)c1ccccc1` (configuration not stated) it is inactive: -1.5%; for `O=C(CCn1nc(-c2ccc(Cl)cc2)c2ccccc2c1=O)Nc1ccc(OC(F)(F)F)cc1` it is inactive: 11.9%.

Consider `CC(=O)c1cccc(NC(=O)c2nc3ccccc3nc2N2CCCCC2)c1`, for which the “activity change, negative = cytotoxicity” value is inactive: 3.4%. The figure for `CCC(=O)N1CCc2cc(S(=O)(=O)CCC(=O)N3CCN(c4ccc(C(C)=O)cc4)CC3)ccc21` is inactive: -6.98%; for `CCOc1ccc(-c2cn3c(n2)sc2cc(C(=O)NCCc4ccc(OC)c(OC)c4)ccc23)cc1` it is inactive: 2.38%. The figure for `Cc1ccc(C2=NN(CC(=O)NCCc3ccc(Cl)cc3)C(=O)CC2)cc1` is inactive: -4.98%; for `CN1C(=O)C2(c3ccccc31)N(c1ccc(F)c(Cl)c1)C(=O)CS2(=O)=O` (configuration not stated) it is inactive: 8.96%. Regarding `Cc1cc(C)c2c(n1)nn1c(C)c(CCC(=O)NCc3ccc(Cl)cc3)c(C)nc21`, the “activity change, negative = cytotoxicity” value was inactive: 3.92%. `COC(=O)c1cc(S(=O)(=O)NCC2CCN(Cc3ccccc3F)CC2)c[nH]1`: the “activity change, negative = cytotoxicity” value was inactive: 27.8%. With `O=C(Nc1cc(F)ccc1F)c1cc2nc(-c3ccco3)cc(C(F)(F)Cl)n2n1`, the “activity change, negative = cytotoxicity” value was inactive: 4.83%.

Turning to `CCN1CCN(C(c2ccccc2)c2c(O)cc(C)n(Cc3ccco3)c2=O)CC1` (configuration not stated), the “activity change, negative = cytotoxicity” value is inactive: 7.38%.

On to `COc1ccc(CNC(=O)C2CCN(S(=O)(=O)c3ccc(C)cc3)CC2)cc1`, for which the “activity change, negative = cytotoxicity” value is inactive: 14.3%. The figure for `Fc1ccc(Cc2cn3cc(-c4ccc(Cl)cc4)nc3s2)cc1` is inactive: 14%; for `CC1Cc2cc(S(=O)(=O)N(C)c3ccc(Br)cc3)ccc2N1C(=O)C1CC1` (configuration not stated) it is inactive: -15.7%.
